# In PubChem BioAssay AID624171 (National Center for Advancing Translational Sciences (NCATS), 2012):
# Screen size: about 410,000 compounds; about 1,200 (0.29%) were called active. Inconclusive results, whose numbers are uncertain, are shown with a selection of clear calls. Calls follow the shape of the dose curve; as a rule, active = well fitted activation curve with a large enough effect; inconclusive = small, poorly fitted or top-dose-only effect; inactive = flat fitted curve, though single readings scatter. A potency beside an inconclusive call is a rough fit, not a confirmed value.
# Assay: qHTS of Nrf2 Activators; also: nearly all actives have a fitted effect of over 65% in size; as to activation: % of control where 0% means no effect
# Details: AREc32 ARE-luciferase reporter (MCF7-derived line), luminescence, 24 h; activation: at 46.1 µM (top of the series)
# In short: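 Luciferase luminescence (Steady-Glo, 30 min at room temperature) served as the read-out of ARE activation in AREc32 cells treated with compounds for 24 hr at 37 deg C.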
# Potency is read from the fitted curve at half-maximal effect; tags tell the direction and shape of the fitted curve.
SMILES,Potency,activation
O=c1/c(=C/c2ccco2)sc2n1CN(c1ccccc1)CN=2,"inconclusive: 15.8 µM [activator, single point]",
CC1(C)COC(/C=C/c2cccc([N+](=O)[O-])c2)=N1,active: 12.6 µM,
CCn1c2ccccc2c2cc(/C=N/NC(=O)c3ccccc3)ccc21,,inactive: -0.0156%
Nc1nc(-c2ccc(Cl)cc2)nn1C(=O)c1cccs1,"inconclusive: 2.82 µM [activator, partial curve, poor fit]",
COC(=O)c1ccsc1NC(=O)CSc1nnnn1Cc1ccccc1,active: 7.94 µM,
Cc1cccc(C)c1NC(=O)C(Cl)=C(Cl)Cl,active: 11.2 µM,
COc1ccccc1/C=C/C(=O)/C=C/c1ccccc1O,"inconclusive: 3.16 µM [activator, partial curve, poor fit]",
C=CCn1c(SCC(=O)N2CCN(CCO)CC2)nc2sc3c(c2c1=O)CCC3,,inactive: 0.932%
CC(C)c1ccc(NC(=O)c2cc(Br)ccc2Br)cc1,active: 7.08 µM,
COc1ccc(N=C2CCS(=O)(=O)c3sccc32)cc1,"inconclusive: 14.1 µM [activator, single point]",
O=C1C(Cl)=C(Nc2ccccc2)C(=O)c2ccccc21,"inconclusive: 3.16 µM [activator, full curve, poor fit]",
O=C(NCCc1ccccc1)C(=O)NCC(c1cccs1)S(=O)(=O)c1cccs1 (configuration not stated),,inactive: 3.92%
COc1cc(/C=C2\SC(=S)N(CCC(=O)N3CCCCC3)C2=O)cc(OC)c1OC,"inconclusive: 4.47 µM [activator, single point]",
O=C(CCSc1ccccc1)Nc1nc2c(s1)COc1ccccc1-2,"inconclusive: 17.8 µM [activator, single point]",
COc1ccc(S(=O)(=O)CCc2nnc(NC(C)=O)s2)cc1,"inconclusive: 22.4 µM [activator, single point]",
c1ccc(Nc2nc3ccccc3[nH]2)nc1,"inconclusive: 17.8 µM [activator, single point]",
Nc1c(C(=O)c2ccc(F)cc2)oc2ccccc12,"inconclusive: 6.31 µM [activator, partial curve]",
CCOC(=O)/C(C#N)=N/Nc1ccc(S(=O)(=O)N2CCc3ccccc32)cc1,,inactive: 2.46%
CCc1cc(=O)oc2cc(O[C@@H]3O[C@H](CO)[C@@H](O)[C@H](O)[C@H]3O)c(Cl)cc12,,inactive: -0.454%
COc1ncccc1-c1cc2nc(NCCNC(C)=O)n(C)c(=O)c2s1,active: 3.55 µM,
Cn1c(=O)n(C)c2cc(NS(=O)(=O)c3ccc(F)cc3)c(NCc3ccccc3)cc21,active: 12.6 µM,
N#Cc1cccc(C(c2nnnn2C2CCCC2)N2CCCCCC2)c1 (configuration not stated),,inactive: 2.38%
CC(=O)c1cccc(NC(=O)c2cc(=O)c3ccccc3o2)c1,"inconclusive: 22.4 µM [activator, partial curve, poor fit]",
Cc1cc(C(=O)Nc2cccc([N+](=O)[O-])c2C)cs1,"inconclusive: 17.8 µM [activator, single point]",

SMILES,Potency,activation
CC(=O)C1=C(C)N(CC2CC2)C(=O)N[C@H]1c1ccc(Br)cc1,,inactive: 0.563%
CCCn1cc(S(=O)(=O)c2cccc(Cl)c2)c(=O)c2cc(F)c(N3CCOCC3)cc21,,inactive: -0.451%
COc1ccc(C(=S)N2CCOCC2)cc1OC(=O)c1ccc([N+](=O)[O-])cc1[N+](=O)[O-],"inconclusive: 15.8 µM [activator, single point]",
CCOC(=O)c1c(NC(=O)COc2cccc(C(F)(F)F)c2)sc2c1CCC(C)C2 (configuration not stated),,inactive: 0.572%
COc1ccc(NC(=O)c2ccc(CN3C(=O)CCn4nc(C)cc43)cc2)c(OC)c1,,inactive: 4.34%
O=C(CCl)N(CCCNC(=O)C(F)(F)F)c1ccc([N+](=O)[O-])cc1,"inconclusive: 22.4 µM [activator, single point]",
O=C(OCc1nc2ccsc2c(=O)[nH]1)c1ccc(Cl)s1,"inconclusive: 25.1 µM [activator, single point]",
COc1ccc2c(CN3CCCCCCC3)cc(=O)oc2c1,,inactive: 5.86%
CN1[C@@H](CC(=O)c2ccccc2)CCC[C@H]1C[C@H](O)c1ccccc1,,inactive: 0.591%
COc1ccc(C(=O)COC(=O)c2cc(=O)c3ccccc3o2)c(OC)c1,"inconclusive: 20 µM [activator, single point]",
CCOC(=O)COn1c(=O)c(-c2ccco2)[n+]([O-])c2ccccc21,"inconclusive: 10 µM [activator, partial curve, poor fit]",
CCOC(=O)c1c(C)[nH]c(C)c1C(=O)COC(=O)/C=C/c1cccc(C(F)(F)F)c1,"inconclusive: 25.1 µM [activator, single point]",
CC(C)Cn1c(SCC(=O)NC(=O)NC2CCCC2)nc2ccccc21,,inactive: 2.67%
CC(/C=N/n1c(-c2cccnc2)n[nH]c1=S)=C\c1ccco1,"inconclusive: 12.6 µM [activator, partial curve, poor fit]",
CCN1C(=O)/C(=C\C=C\c2ccccc2[N+](=O)[O-])SC1=S,active: 5.01 µM,
CC(=O)NCCNC(=O)c1ccc2c(c1)S(=O)(=O)c1ccccc1C2=O,,inactive: 0.532%
COc1cc(C=O)ccc1OS(=O)(=O)c1ccccc1[N+](=O)[O-],"inconclusive: 17.8 µM [activator, single point]",
COc1ccccc1NC(=O)CSc1nccc(-c2ccco2)n1,"inconclusive: 11.2 µM [activator, partial curve]",
O=C1/C(=C/c2cccc([N+](=O)[O-])c2)CCc2ccccc21,"inconclusive: 17.8 µM [activator, single point]",
O=[N+]([O-])c1ccccc1CN1CCN(Cc2c[nH]c3ccccc23)CC1,"inconclusive: 12.6 µM [activator, single point]",
C[n+]1ccc(/C=N/Nc2nc(Cl)c(C#N)c(Cl)c2Cl)cc1,active: 12.6 µM,
O=C(c1ccc(F)cc1)c1cc2ccc(O)cc2oc1=O,,inactive: 7.03%
Cn1c(N)c(C(=O)COC(=O)c2ccccc2C(=O)c2ccc(Cl)c([N+](=O)[O-])c2)c(=O)n(C)c1=O,"inconclusive: 17.8 µM [activator, partial curve, poor fit]",
